Source: a collection of fitness landscapes (doi:10.1016/j.celrep.2020.107928)
In all, about 81,000 sequences were measured (“one-hybrid fitness for binding parS DNA”: median about -0.17, highest 2% from about 0.51 on). The list shows a part of the results.

B1: Caulobacter ParB omega fusion; a variant is named by its letters at X, in order, B8GW30 (parent)
chain: MESVVVGEPGMSEGRRGLGRGLSALLGEVDAAPAQAPGEQLGGSREAPIEILQRNPDQPRRTFREEDLEDLSNSIREKGVLQPILVRPSPDTAGEYQIVAGERAWRAAQRAGLKTVPIMVRELDDLAVLEIGIIENVQRADLNVLEEALSYKVLMEKFERTQENIAQTIGKSXSHVANXMRLLXLPDEVQSYLVSGELTAXHARAIAAAADPVALAKQIIEGGLSVRETEALARKAPNLSAGKSKGGRPPRVKDTDTQALESDLSSVLGLDVSIDHRGSTGTLTITYATLEQLDDLCNRLTRGI

Variants of: B1
Test: one-hybrid fitness for binding parS DNA (scaled: cognate 1, non-cognate 0); higher = stronger binding
Settings: with parS DNA site
Outline: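 Pre- and post-selection plasmids were Illumina-sequenced, three replicate libraries were pooled, and any variant with under 10 reads was removed. The libraries were Caulobacter ParB with four specificity codons randomised, selected in E. coli USO through a HIS3 reporter whose site is 19 bp from the promoter. Cells grew 48 hours at 37°C on M9 without histidine, with 0.1 mM IPTG and 5 mM 3-AT. Fitness is the log change in variant-to-wild-type read ratio, rescaled against cognate and non-cognate.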

one-hybrid fitness for binding parS DNA, 0.206:
RYLD

one-hybrid fitness for binding parS DNA, 0.474:
RTQY

one-hybrid fitness for binding parS DNA, 0.231:
RKKM

one-hybrid fitness for binding parS DNA, 0.529:
RMNY

one-hybrid fitness for binding parS DNA, 0.902:
RFKT

one-hybrid fitness for binding parS DNA, 0.959:
RCCC

one-hybrid fitness for binding parS DNA, 1.01:
RQTG

one-hybrid fitness for binding parS DNA, 0.223:
RQCW

one-hybrid fitness for binding parS DNA, ≤ 0.2:
VQEG
EMFA
QSGY
SGVV
VASW
SING
PLHV
DWVF
QDRN
DTRE
CQPE
TMQS
SYNT
TKSM
TPHC
MWGS
CRVT
VWMG
YIKV
PVLG
PHPM
NSLS
EWKG
QEIT
CLPG
LYAL
GVPL
QFWR
LSWM
YVTI
SLCY
DTHD
QLQL
LAYL
LVSC
QTCL
KRCK
CTIS
LWAD
RDQR
ACCS
SVFR
WRLR
VIGG
CGYG
TRRF
PMCW
HTTY
LCRA
LEMR
RGMM
WITA
CEDR
LRGC
RNME
NEPL
SNYR
DSSE
LRFR
QIKS
ENLL
GPNG
YASE
YSAS
VHKC
KLHW
PNLV
QGAN
CCAI
CVMR
PYPN
HKNL
IGFV
HPKY
QALV
VPWL
NGTE
KHYT
TPSR
SNYH
QQKC
RMPD
SELR
QNEG
PRGK
HPTK
TNKY
LCQC
TIGG
LDMV
MRPS
QLMN
FYRR
CRLA
HKYA
SEQM
IQSK
WKPQ
HNIC
SNGR
ISKY
VMFS
LPPK
IYYG
FPPF
WRMT
HQHG
SCKD
CFYL
GAHT
THYN
PRAR
YEFT
DNQR
LQGS
YYCT
DYVI
AGRM
CFIG
DGII
LWNN
GPAM
HGKG
DVNR
PAGR
PGLW
QMKW
HAAR
KFSS
FKLT
YQVS
WWKG
PTFT
NYLS
HECG
SETS
PNGV
QYNY
PDRQ
PRYL
QDSV
SCPY
EQAG
SPGT
PAHY
MVHI
QWPY
RNAV
QTDR
HNLG
LLAV
RVRD
SREG
MCYS
QTWS
PDEC
QLWP
TECG
HAEA
QPNL
IRCR
PMVR
NGTT
SYCG
IVVD
VFDS
QSRQ
RLIR
SHTQ
VAHG
GMGT
RANL
NQVR
QLDM
EKSR
HKHC
VAEL
YDNS
SDRP
CAGK
ASPC
TNSD
GRMV
KIVG
VCRA

one-hybrid fitness for binding parS DNA, 0.341:
IYEY

one-hybrid fitness for binding parS DNA, 0.985:
RTES
